# Measurements: ChEMBL document CHEMBL4888484, “Replenishing the malaria drug discovery pipeline: Screening and hit evaluation of the MMV Hit Generation Library 1 (HGL1) against asexual blood stage Plasmodium falciparum ,using a nano luciferase reporter read-out” (2022)
# In all, about 4,800 compounds went through this assay and about 410 (8.5%) showed an effect of 50% or more. The list shows a part of the results.
# Test system: Plasmodium falciparum
# Test: Confirmatory screen in NF54 pLDH assay, in single point, at 2uM, 72h
# Type: functional, Erythrocyte
# Details: timepoint 72 hour
row,Structure (SMILES),% Inhibition
1,COC(=O)C1NS(=O)(=O)c2ccc(Cl)cc2C1(O)c1ccccc1F (stereo not drawn),4%
2,COc1cc(NS(=O)(=O)c2ccc(-n3cnnn3)cc2)nc(OC)n1,9%
3,Brc1cccc(-c2ccc(-c3cc(-c4ccccc4)nnc3-c3ccccc3)o2)c1,6%
4,O=C(Cc1ccc(Oc2nccc(C(F)(F)F)n2)cc1)NCCO,7%
5,CN(C)c1c(F)c(F)c2cc3c(C(C)(C)C)nn(C)c3nc2c1F,17%
6,Cc1ccccc1C(=O)N(Cc1cccc(F)c1)c1ccc(CC(=O)NCCN2CCCCC2)cc1,39%
7,O=C([C@H]1CCCN(C(=O)N2CCc3sccc3C2)C1)N1CCc2[nH]ncc2C1,-7%
8,CC[C@@]1(c2ccc(NC(=O)Cc3c[nH]c4ccccc34)cc2)CCC(=O)NC1=O,-4%
9,O=S1(=O)NC(c2cccc(F)c2)=Nc2ccc(S(=O)(=O)N3CCOCC3)cc21,-11%
10,O=C(Nc1cc(NC(=O)c2ccc(F)cc2)cc(Oc2cccnc2)c1)c1ccc(F)cc1,5%
11,CN(Cc1nnc[nH]1)C(=O)C1(C)CCC1,-9%
12,COc1ccc(C2=CN(CC(=O)c3ccc(Cl)cc3)C3=CCCCCN23)cc1,41%
13,Cc1nc(-c2cccnc2)nc(NCCNC(=O)C(C)(C)C)c1C,5%
14,CN(C)c1ccc(Nc2ccc(F)cc2S(=O)(=O)C(F)(F)F)cn1,-1%
15,COCCOc1ccc2c(n1)CCN(C(=O)c1ccc(OC)c(OC)c1)C2,-8%
16,O=S(=O)(c1cccc(Cl)c1)N1CCc2nc(N3CCCCC3)nc(Oc3ccccc3)c2C1,78%
17,O=S(=O)(Nc1ccc(F)cc1OCC1CC1)c1cn[nH]c1,-6%
18,COc1cccc(-c2cc(O)cc(CC[C@H]3CCCCN3)c2)n1,89%
19,c1coc(CNc2nc(Nc3cccc4ccccc34)nc3ccccc23)c1,50%
20,CC1CCN(C(=O)c2c(-c3ccccc3)nc3n2CCS3(=O)=O)CC1,-6%
21,O=C1C[C@@]2(CCCN(c3nc(C4CC4)ns3)C2)CN1,-7%
22,COCCC(=O)N1CC[C@H](c2nc(C3CCOCC3)no2)C1,6%
23,CCC1(CC)NC(=O)N(CC(=O)Nc2cccc(CC(=O)OC)n2)C1=O,-20%
24,Cc1cc(Cl)ccc1OCc1cccc(-c2nc3c4cn[nH]c4ncn3n2)c1,8%
25,O=C(Nc1ccc(C(F)(F)F)cc1)N1CCN(CC(O)C2CCCO2)CC1 (stereo not drawn),10%
26,Cc1cc(C)c(OC(=O)c2ccc(Cl)cc2Cl)c(CNC(=O)c2ccccc2)c1,-15%

row,Structure (SMILES),% Inhibition
1,CCOC(=O)C1(C(=O)OCC)CN(c2ccccc2)[C@H](C(=O)OC)C1(C(=O)OCC)C(=O)OCC,11%
2,Cc1ccc(-c2cc3c(N4CC=C(c5ccccc5)CC4)nccn3n2)c(C)c1,14%
3,COc1ccc(C)cc1NC(=O)N1CC(c2nc(C(C)C)nn2C)C1,1%
4,CCO[C@H]1C[C@H](NC(=O)Nc2ccc(F)c(C3CC3)c2)C1,8%
5,Cn1ccc(CN2CCN(c3ccccc3)CC2)n1,6%
6,Cc1nnc2sc(-c3cnn(-c4ccccn4)c3C(F)(F)F)nn12,-4%
7,CN(C(=O)c1ccc2ncsc2c1)c1ccccc1,-12%
8,O=c1[nH]c(=O)n(S(=O)(=O)c2ccccc2)cc1F,87%
9,Cc1ccc(-c2cc(C(=O)Nc3nnc(C(C)C)s3)no2)cc1F,16%
10,COc1ccc(C(=O)C[n+]2cc(-c3ccc(OC)cc3)n3c2CCCC3)cc1,65%
11,CCOc1ccccc1NC(=O)C[C@H]1CCc2nnc(C3CCCC3)n2CC1,3%
12,O=C(N[C@@H]1CC=C(c2ccc(F)cc2)CC1)c1nc2n(n1)CCCN2,10%
13,Cc1ccc(Cc2nn3c(C4CCN(S(C)(=O)=O)CC4)nnc3s2)cc1C,-3%
14,CC(C)N(C(=O)CCN1C(=O)CCC1=O)c1ccccc1Br,-19%
15,COc1ccc(CNC(=O)[C@H](C)n2ccc3cc(S(=O)(=O)N4CCCC4)ccc32)cc1OC,9%
16,CC1(C)OCc2cc(CNc3ccc4oc(=O)[nH]c4c3)ccc2O1,100%
17,N#Cc1ccc(C(=O)N[C@H]2CCCc3c2cnn3-c2ccccn2)cc1,9%
18,CN1CCCN(c2ccnc3ccsc23)CC1,39%
19,CC(C)C(NC(=O)c1ccccc1F)C(=O)NC1CCC(N(C)C)C1 (stereo not drawn),-9%
20,O=C(C#Cc1ccc(C(F)(F)F)cc1)NCC1(CO)CCC1,12%
21,O=C(C1CC12CCCC2)N1CCCC(S(=O)(=O)N2CCc3ccccc32)C1 (stereo not drawn),8%
22,COc1cc2c(cc1CNc1nc(N)nc3c1CCNCC3)CCC2,11%
23,CC(C)(C)C(=O)Nc1cc(Br)c(O)c(Br)c1,-1%
24,CN(CCN(C)C1CC1)C(=O)c1cc2[nH]cnc2cc1F,15%
25,CCOC(=O)c1oc(NC(=O)OC(C)(C)C)nc1C(F)(F)F,5%
26,CN1CCC(N2CCC(CN(Cc3ccncc3)Cc3c(F)cccc3Cl)CC2)CC1,99%

row,Structure (SMILES),% Inhibition
1,O=C(NC1CCN(Cc2ccco2)CC1)c1ccco1,-2%
2,Cc1cc2ncc(-n3cncn3)c(-c3ccccc3)n2n1,8%
3,O=C(c1ccc(COc2ccccc2Br)cc1)N1CCN(c2cccc(C(F)(F)F)c2)CC1,-16%
4,O=C1Nc2ccccc2O[C@H]2C[C@@H]1N(CC1CC1)C2,-10%
5,Cc1cc2ncn([C@@H](C)c3nc(-c4cnccn4)cs3)c2cc1C,3%
6,Cc1ccnc(-n2nccc2NC(=O)[C@H](C)Oc2ccccc2)c1,0%
7,Cn1ncc(-c2ncc(C(F)(F)F)cc2Cl)c1N,8%
8,COc1ccc(N(C)S(=O)(=O)c2ccc3c(c2)CCN3C(=O)C2CCC2)cc1,9%
9,Cc1ccc(N2C(=O)c3ccccc3[C@@H]2c2c[nH]c3ccccc23)cc1,37%
10,NS(=O)(=O)N1CCN(Cc2ccn(C3CCCC3)n2)CC1,9%
11,COC(=O)c1c(NC(C)=O)c2cc(NC3CCOCC3)cnc2n1CCc1ccc(OC)cc1,61%
12,Cc1noc(C)c1CNC(=O)[C@H]1CCc2nnc(C3CCOCC3)n2CC1,-23%
13,O=C(COCC(=O)Nc1cccc(Cl)c1Cl)NCCC1=CCCCC1,5%
14,CC[C@H](O)CCNC(=O)Nc1ncc(CC(C)C)s1,2%
15,CC(C)n1[nH]c(=O)c2c1NC(=O)C[C@H]2C1CCCCC1,10%
16,CC1NC2(C(=O)N(Cc3ccc(F)cc3)c3ccccc32)C2C(=O)N(c3cccc4ccccc34)C(=O)C12 (stereo not drawn),2%
17,Cc1cc2nn(CC(=O)Nc3ccc(C)c(C)c3)c(=O)n2c(-c2ccc(C(F)(F)F)cc2)n1,1%
18,O=C(Nc1onc2c1CCC2)c1ccc2ccccc2c1,41%
19,COc1cccnc1NC(=O)c1cnn(C)c1,9%
20,NC(=O)N1CCC[C@H]1C(=O)NC1CC(=O)N(C2CC2c2ccccc2)C1 (stereo partly drawn),8%
21,O=C(CCC(=O)c1ccc(F)cc1F)NS(=O)(=O)c1cccnc1,1%
22,CC(=O)c1ccc(NC(=O)Cn2c(-c3ccccc3)nc(C)cc2=O)cc1,10%
23,Cc1ccc(F)cc1-n1c(=O)c2sccc2n(CC(=O)Nc2ccc3c(c2)CCC3)c1=O,13%
24,CCN(CC)CCNCc1sccc1C,-16%
25,Cc1noc(C)c1C(=O)NC[C@H](O)Cn1ccccc1=O,6%
26,Cc1cc(OC(=O)c2cccnc2)c(C(C)C)cc1NC1=NS(=O)(=O)c2ccccc21,-6%

row,Structure (SMILES),% Inhibition
1,COc1ccc(CCNc2oc(-c3cccnc3)nc2C#N)cc1OC,-5%
2,OCCNCc1ccc(Cl)cc1Cl,6%
3,CCNC(=O)N1CC[C@H](Oc2ccc3ccccc3n2)C1,32%
4,Cc1cc(S(=O)(=O)Nc2cn(C)c(=O)n(C)c2=O)sc1Cl,-10%
5,O=C1CCC2(CCN(S(=O)(=O)c3ccc(F)cc3F)CC2)N1,8%
6,CC(=O)N1c2c(C)cccc2[C@@H](C)CC1(C)C,16%
7,CN1C(=O)[C@H](O)N(c2cccc3ccccc23)C1=O,9%
8,CNC(=NCC(C)(C)c1ccc(OC)cc1)NC,7%
9,O=C(c1ccccc1OCC1CC1)N1CC(O)C1,-3%
10,Cc1ncc(C(=O)Nc2cc3c(=O)[nH]cnc3cc2F)c(C2CC2)n1,0%
11,CC(C)n1cc(CN[C@@]2(CO)CCCc3ccccc32)cn1,11%
12,Cc1cccc(NC(=O)c2cc(C)nc3c2c(C)nn3-c2ccc(F)cc2)c1,0%
13,Cc1ccc(CNC(=O)N2CC[C@H](CC(=O)N(C)Cc3ccccc3)C2)cc1,12%
14,Cn1c(N2CCN(C(=O)C[C@@H]3NC(=O)c4ccccc4N=C3O)CC2)nc2ccccc21,-4%
15,Nc1cc(F)c(Br)cc1Cl,7%
16,O=S(=O)(N[C@H]1CCc2nnc(-c3ccc(F)cc3)n2C1)N1CCCCC1,13%
17,Cc1ccc(OCc2cccc(C(=O)N3CCC[C@@H]3CN3CCCCC3)c2)cn1,9%
18,O=c1[nH]c2nc(N3CCCCC3)ncc2c(=O)n1Cc1ccco1,-14%
19,COCc1cc2nn(CC(=O)Nc3ccc4c(c3)OCO4)c(=O)n2c(-c2ccccc2)n1,12%
20,Nc1c(Br)cc2oc(-c3ccc4ccccc4c3)nc2c1Br,14%
21,O=C(NCc1cc(F)cc(F)c1)c1ccc2ccccc2n1,14%
22,O=S(=O)(c1ccc(Cl)cc1)N1CCN(C2CCCC2)CC1,14%
23,COc1ccc(C(OC)C(C)NC(=O)Cc2c(C)[nH]c3ccnn3c2=O)cc1 (stereo not drawn),-15%
24,Cc1ccc(NS(=O)(=O)c2ccc(NC(=O)Cc3ccccc3)cc2)cc1C,10%
25,Cc1cccc(Cc2c(C)nn(-c3nc(C)cc(C)n3)c2O)c1,-7%
